Earlier results on one compound are cited in patent US20110124589A1, “INHALED FOSFOMYCIN/TOBRAMYCIN FOR THE TREATMENT OF CHRONIC OBSTRUCTIVE PULMONARY DISEASE” (Gilead Sciences, Inc., priority 2009, published 2011).

For the data set the following is noted: aerosol administration; cited from earlier work.

For `NC[C@H]1O[C@H](O[C@H]2[C@H](O)[C@@H](O[C@H]3O[C@H](CO)[C@@H](O)[C@H](N)[C@H]3O)[C@H](N)C[C@@H]2N)[C@H](N)C[C@@H]1O` [Tobramycin], the sputum levels was 1000 µg/mL.
